These results are taken from the supplement of paper PMC11417369.

± gives the standard deviation of the averaged measurements. The list shows a part of the results.

This experiment concerns PfAP2-EXP AP2 domain (GST-tagged). The experiment in a line: gcPBM binding intensity (ln(normalized median fluorescence intensity)); higher = stronger DNA binding. In a few lines: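 Binding intensity is defined as the maximum Masliner-normalised natural-log median intensity across replicate spots for either probe orientation. It was measured on an Agilent 4 × 180k array of primer-extended double-stranded 36-bp intergenic genomic probes and negative controls, to which GST-tagged P. falciparum DNA-binding domains made in E. coli were applied for 1 h in 1× PBS with 1% milk, 0.2 mg/ml BSA, 0.5% salmon testes DNA and 0.03% Triton X-100. Detection was by Alexa488 anti-GST antibody and scanning at 488 nm.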
Take “TATATATATATTAATAGTACATATTATGTAAGCCTA [XGTACX_site2826]”: the “gcPBM binding intensity (ln)” value is 9.43 ± 0.099. For “ATAAAACAAATGAGTACACACACATAAAAATTGAAA [CACACA_site7949]” the value was 8.79 ± 0.35; for “AAAAAATACATACATACACACATATATATATATATA [CACACA_site913]”, 10.1 ± 0.31; for “TCCTCTTATAATTCGTGTCCACATATATCATACAAT [XGTACX_site1523]”, 8.9 ± 0.45. For the sequence “TACGGATATATATATTGTACATATATATAATATATA [XGTACX_site3156]”, the “gcPBM binding intensity (ln)” value amounted to 8.38 ± 0.29. In the case of “AGAAAAAAATAATGTACACACACATAGATGTTTATA [CACACA_site4271]”, the “gcPBM binding intensity (ln)” value was 8.33 ± 0.34. To “TCAATAATAACAAATGAACACACATATATATGAGCA [CACACA_site8663]” belongs 8.66 ± 0.44; to “AAAAAAAAAAAAAAAAGTACACAGTAGAATTAAATG [XGTACX_site1843]”, 8.76 ± 0.4. For “ATAAGTAAATTAGATACACACATGATATCATACATA [CACACA_site1623]” the value was 8.53 ± 0.47; for “GAACAATAAATAAAAAAAATAAAAATAAAAATAAAA [TGCATGCA_negctrl_site35]”, 8.33 ± 0.55; for “TTTTTTTTTTAATTAACACACATAAATATATATATA [CACACA_site3275]”, 9.31 ± 0.13. For the sequence “ATAAATTTTTTTTTTTTTTTTTTTCTTTTTCTTTGT [CACACA_negctrl_site1231]”, the “gcPBM binding intensity (ln)” value came out at 8.14 ± 0.54. Consider “ACTAAAGTGTATCACTGTACAATTCTTCTCTTTTTT [XGTACX_site8705]”, for which the “gcPBM binding intensity (ln)” value turned out to be 8.71 ± 0.35. As to “ACGTAATTAATTCATCAGATATAATTAATAATAATA [XGTACX_negctrl_site550]”, the “gcPBM binding intensity (ln)” value is 8.29 ± 0.42.

For the sequence “AATATATTTGTGTATGTGCGCAGTGTGTAATTTATT [GTGCAC_site9765]”, the “gcPBM binding intensity (ln)” value was determined as 9.05 ± 0.41. Regarding “CATCTCATATTTTGAAGTACTAAGAAAAGATATAAA [XGTACX_site6867]”, the “gcPBM binding intensity (ln)” value was found to be 8.61 ± 0.42. For “TTTTCTTGACCTATTATTCTTCTCATAGTATAATAT [GTGCAC_negctrl_site641]” the value was 8.61 ± 0.45; for “TAATATGCATAAAATTGTACAAACTTACATATAATA [XGTACX_site2752]”, 8.68 ± 0.49. For “TTTTTTATAGGACATGCATGTTGTAGAGCTGTATAT [TGCATGCA_site704]” the value was 9.48 ± 0.48; for “TTCATAGAATTATATATTTTAAAAAAAAAAATAATT [CACACA_negctrl_site175]”, 7.88 ± 0.46; for ATTCATTTACCAATGGTGCAATATATTTTTATAATG, 8.79 ± 0.13. On to “TGTCAAAATATGTATACACACAATTTTTTTTTTTTT [CACACA_site2465]”, for which the “gcPBM binding intensity (ln)” value came to 8.54 ± 0.53. With “TTTTTCATAAGAAGCACACAAAAAATGATAGAGAAT [CACACA_site1417]”, the “gcPBM binding intensity (ln)” value came to 9.1 ± 0.52.

Regarding “TATATTACTTATATTTGTACACAGAAATATAAATCA [XGTACX_site13]”, the “gcPBM binding intensity (ln)” value was determined as 8.38 ± 0.33. To “TAATAAATAAAATAGAGTACAGGGATTTCATTAAAT [XGTACX_site8979]” belongs 8.65 ± 0.4; to “TGAAATACGAATTATTGTACTTATGTGTAAGATGGC [XGTACX_site4472]”, 8.73 ± 0.38; to “AAAAAAAAAATATATTGTACAAATAGATATGTCAAT [XGTACX_site122]”, 8.76 ± 0.33. In the case of “AAAGAAAGTACCTTCACACATATAAGAATATAATAT [CACACA_site5214]”, the “gcPBM binding intensity (ln)” value came to 8.6 ± 0.52. To “TTATTTTTTTTGTGTTGTACAATTTATTACTACTAA [XGTACX_site346]” belongs 8.82 ± 0.31; to “AATATATTTTAATATACACACATATATGCTCTTTAA [CACACA_site9371]”, 8.29 ± 0.35; to “GTATTTATAATACGGCGTACATAAAAAAAAAAAAAA [XGTACX_site3705]”, 8.51 ± 0.49. Turning to “TTATTTATGTGTAGGGCATGCAATCGTGTTTTTAAA [TGCATGCA_site735]”, the “gcPBM binding intensity (ln)” value stood at 9.23 ± 0.41. For “AAACAAATATGTAGCACACATTCACATAATATATTT [CACACA_site2335]” the value was 8.77 ± 0.35; for “CAAAAAGATAAGGTGTGTACGTATTATAATTTTAAA [XGTACX_site531]”, 9.07 ± 0.89. Turning to TGAAATGATCTTTAGTTGCACTTAAAAATATATATA, the “gcPBM binding intensity (ln)” value was determined as 8.52 ± 0.2. To “ATTTAATTTTCCAAATGTACTTATATTTTTATGAAA [XGTACX_site6144]” belongs 8.59 ± 0.4. For “TAGATACATAAACACACACACACATACATATATACA [CACACA_site9139]” the value was 8.68 ± 0.6; for “GGTATATAAAAATATTGTACTTAAAAAAATATGTAT [XGTACX_site6253]”, 8.48 ± 0.35. For TATTTCACTTTTTGTCTGCACTAAAATTTTATGGTA the value was 8.94 ± 0.35.

Consider “AAGTATAGTCTTACATATATATATATATATATATAT [GTGCAC_negctrl_site280]”, for which the “gcPBM binding intensity (ln)” value was 10.1 ± 0.54. For “TTTTGACTAATATAATATGTTAAGAATTAATAAATA [XGTACX_negctrl_site35]” the value was 8.05 ± 0.45; for “AAAAAAAAAAAAAACACACACATATATATAATATAT [CACACA_site3172]”, 8.41 ± 0.54; for “AGTATACTCAAACACACACACACAAAAAAAAAAAAA [CACACA_site4398]”, 8.52 ± 0.42. For “TAAGAAATAAATAGTACACACATAGACACCCACCGA [CACACA_site1516]” the value was 9.12 ± 0.39. As to “ACAATATTATTATTTAACCATACACAATTATATGTC [XGTACX_negctrl_site378]”, the “gcPBM binding intensity (ln)” value worked out at 8.32 ± 0.36. For the sequence “CAGTTTAATTTACATAGTACATAATATTTTAATTTT [XGTACX_site1793]”, the “gcPBM binding intensity (ln)” value amounted to 8.19 ± 0.3. As to “GTAATATTAATATAATGTACAAAATGAAACATATAT [XGTACX_site6219]”, the “gcPBM binding intensity (ln)” value amounted to 8.66 ± 0.41.

As for “ATTAATTATGTATTTCAACAAAGAAGTGTTATATAT [GTGCAC_negctrl_site215]”, the “gcPBM binding intensity (ln)” value was 8.49 ± 0.35. With “ATTATACCGTATTTTGCATGTAGTATTTTCATTTTA [TGCATGCA_site1021]”, the “gcPBM binding intensity (ln)” value worked out at 9.43 ± 0.3.

With “ATTATTTGTAATATAACACACACAAAAAAAGACTCG [CACACA_site8487]”, the “gcPBM binding intensity (ln)” value was determined as 8.63 ± 0.52. For “TCTTTATCCTTTCTCTTTTTATTAATTATAATATTC [TGCATGCA_negctrl_site584]” the value was 8.95 ± 0.38.

“TATCATTTATATATGTGTACTTATTTATTTATTTAT [XGTACX_site7961]”: the “gcPBM binding intensity (ln)” value turned out to be 8.82 ± 0.45. As to “AAGGAAAATATTAACTGTACATATAAAATATATATA [XGTACX_site5310]”, the “gcPBM binding intensity (ln)” value stood at 8.48 ± 0.23.

With “AAATGTACAGGACGCACACACATATATATATATATA [CACACA_site3674]”, the “gcPBM binding intensity (ln)” value amounted to 10.4 ± 0.81. To “ATATATACCTAAGACACACACATATATATATATATA [CACACA_site764]” belongs 10.1 ± 0.52; to “AATGAATCCTTATATACACACATTATTATAGTATAG [CACACA_site7454]”, 8.53 ± 0.41; to “ATTTATATATATTTATGTACGTATTAATTTTTTTTT [XGTACX_site3877]”, 8.77 ± 0.45.
